# Laboratory results: PubChem BioAssay AID1240 (Sanford-Burnham Center for Chemical Genomics, 2008)
# Out of some 50,000 compounds screened, about 800 (1.6%) showed an effect of 50% or more. The list shows a part of the results.
# Molecular target: Bcl-2-like protein 10 (Homo sapiens) (UniProt Q9HD36)
# Test: TR3 peptide-Bcl-B binding displacers, biochemical primary FP assay, phenotype converters (AID 1240);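 also: 0% = Bcl-B with tracer peptide and DMSO and 100% = tracer peptide lacking Bcl-B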
# Settings: GST-Bcl-B / FITC-TR3 peptide fluorescence polarization; stronger effect = higher value; compound at 3.75 mg/L
# Chain of UniProt Q9HD36 (Q9HD36 whole entry, looked up): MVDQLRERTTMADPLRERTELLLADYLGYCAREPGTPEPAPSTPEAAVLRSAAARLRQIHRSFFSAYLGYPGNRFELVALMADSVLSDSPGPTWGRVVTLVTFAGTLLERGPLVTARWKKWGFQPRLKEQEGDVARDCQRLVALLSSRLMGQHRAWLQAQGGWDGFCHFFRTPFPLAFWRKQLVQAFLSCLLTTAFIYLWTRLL
row,Structure (SMILES),displacement [%]
1,CN1C(=O)NC(=O)/C(=C/c2ccc(OCC(=O)O)cc2)C1=O,-2.8
2,O=C(N=Nc1c(O)n(CN2CCOCC2)c2ccc(Br)cc12)c1cccnc1,2.1
3,CC12c3ccccc3C(c3ccccc31)C1C(=O)NNC(=O)C12 (stereo not given),4.3
4,O=C(Nc1ccc(NC(=O)c2cccc(F)c2)cc1)c1ccc(Br)cc1,-8.3
5,O=C(Nc1cc(C(F)(F)F)cc(C(F)(F)F)c1)c1cccc([N+](=O)[O-])c1,-6.9
6,COc1cccc(NC(=O)CCc2ccccc2)c1,-12.6
7,CC1=C(C(=O)OCC(Cl)(Cl)Cl)C(c2ccc(Cl)cc2)NC(=O)N1 (stereo not given),2.3
8,c1ccc(C2=Nc3cccc4cccc(c34)N2)cc1,15.9
9,COc1cccc(C(=O)/C=C/c2ccccc2OC)c1,-7
10,O=C(CN(c1ccccc1)S(=O)(=O)c1ccccc1)NCCSc1ccccn1,-2.9
11,Cc1c(NC(=O)c2nn3c(C(F)(F)F)c4c(nc3c2Cl)-c2ccccc2CC4)c(=O)n(-c2ccccc2)n1C,11.8
12,COc1cccc(C2Sc3ccccc3NC3=C2C(=O)c2ccccc23)c1 (stereo not given),10.5
13,CC(C(=O)N1c2ccccc2-c2c(ssc2=S)C1(C)C)N1C(=O)c2ccccc2C1=O (stereo not given),6.3
14,Cc1ccc(C(C)C)c(OCCNC(=O)c2cccc3ccccc23)c1,-2.9
15,CC(=O)c1ccc(N2C(=O)c3ccc4c5c(ccc(c35)C2=O)C(=O)N(c2ccc(C(C)=O)cc2)C4=O)cc1,17.8
16,Cc1ccccc1OCC(=O)O/N=C(\N)Cc1cccs1,5.4
17,CCOC(=O)Cc1nnc(Nc2cc(C)ccc2C)c2ccccc12,1.9
18,COC(=O)c1sc(NC(=O)c2c(-c3c(Cl)cccc3Cl)noc2C)c(C#N)c1C,3.1
19,O=c1c2c3c(sc2nc(SCc2ccccc2Cl)n1-c1ccccc1)CCC3,5.4
20,COc1cc(C=Nc2ccc(Nc3ccccc3)cc2)cc(Br)c1O,18.4
21,O=C(/C=C/c1ccc(-c2cccc(C(F)(F)F)c2)o1)c1ccc(F)cc1,-28.8
22,Cc1ccc(-c2cc(C(=O)Nc3nccs3)c3ccccc3n2)o1,9.4
23,Cc1ccc(C(=O)N/N=C/c2ccc3c(c2)OCO3)cc1,9.5
24,N/C(=N\OC(=O)c1ccc([N+](=O)[O-])cc1)c1ccccc1Cl,-5.9
25,COc1cc(NS(=O)(=O)c2ccc(NC(=O)c3ccc4ccccc4c3)cc2)nc(OC)n1,9.2
26,CCOC(=O)c1ccc(-n2c(C)cc(/C=C3\NC(=S)NC3=O)c2C)cc1,13.6
27,O=C(NC(=S)Nc1ccc2oc(-c3ccc(F)cc3)nc2c1)c1ccc(Cl)cc1,19.1

row,Structure (SMILES),displacement [%]
1,CS(=O)(=O)N1CCN(S(C)(=O)=O)C(OCc2ccccc2)C1OCc1ccccc1 (stereo not given),4.8
2,Cc1ccc2oc(-c3cc(NC(=O)c4cccnc4)ccc3O)nc2c1,0.9
3,FC(F)(F)c1cccc(-c2ccc(C(=S)N3CCOCC3)o2)c1,12.5
4,COc1cccc(/C=C2\SC(=Nc3cccc(Cl)c3C)NC2=O)c1,-15.1
5,COC(=O)c1ccccc1NC(=O)CN(c1ccc(Cl)cc1)S(C)(=O)=O,-6.4
6,Cc1ccc(NC(=O)CSc2nsc(SCC(=O)Nc3ccc(C)cc3)c2C#N)cc1,38.6
7,O=C(N(c1cccc2ccccc12)C1C=CS(=O)(=O)C1)C(F)(F)F (stereo not given),66
8,CCN(CC)CCN1C(=O)C(O)=C(C(=O)/C=C/c2ccccc2)C1c1ccccc1F (stereo not given),-8.5
9,Cc1ccc(C2CC(C(F)(F)F)n3nc(C(=O)Nc4ccc(OC(F)(F)F)cc4)cc3N2)cc1 (stereo not given),-11
10,CCOc1ccccc1NC(=O)CN(c1ccc(C)cc1)S(C)(=O)=O,1.8
11,COc1ccccc1N=Nc1c(O)[nH]c(=O)[nH]c1=O,-1
12,CCOc1cc(/C=C2/SC(=S)N(C)C2=O)ccc1OCCOc1ccc(C)c(C)c1,9.3
13,O=C(COc1ccc(Cl)cc1)Nc1ncc(Cc2cccc3ccccc23)s1,4
14,CC(=O)Nc1ccc(Nc2nc(-c3ccc(Cl)c(Cl)c3)cs2)cc1,12.6
15,COC(=O)c1cc(C(=O)NCc2ccccc2OC)cc([N+](=O)[O-])c1,8.2
16,COc1ccccc1/C=C1\SC(=S)N(C(CCSC)C(=O)O)C1=O (stereo not given),9.7
17,COc1ccc(C2Nc3ccccc3C(=O)N2Cc2ccccc2)cc1CN1C(=O)c2ccccc2C1=O (stereo not given),0.9
18,O=C(Nc1ccc2c(c1)OCCO2)c1ccccc1Br,5.5
19,COc1ccc(/C=C(\NC(=O)c2ccccc2)C(=O)NCCc2c[nH]c3ccccc23)cc1,-4.6
20,O=C(Nc1ccccc1[N+](=O)[O-])c1cccc(N2C(=O)CCC2=O)c1,11.7
21,COc1ccc(CNc2cccc(C)c2)cc1,12.6
22,C=CCOc1ccc2c(C)c(CC)c(=O)oc2c1,16.3
23,CC(=O)c1cccc(NC(=O)Nc2cccc3ccccc23)c1,13.2
24,COc1ccc(N2C(=O)/C(=C/c3cc(Br)cc(OC)c3O)SC2=S)cc1,-38.7
25,Cc1ccccc1C(=O)NNC(=O)C(=O)NCCO,-10
26,O=C(CN(c1ccccc1)S(=O)(=O)c1ccccc1[N+](=O)[O-])Nc1cc(Cl)cc(Cl)c1,-9.8
27,Cc1ccc(SC(CC(=O)O)c2ccccc2)cc1 (stereo not given),-1.4

row,Structure (SMILES),displacement [%]
1,O=C(Nc1ccccc1I)c1ccccc1C(F)(F)F,2.9
2,CS(=O)(=O)N(CC(=O)Nc1ccccc1Cl)c1cccc(C(F)(F)F)c1,10.2
3,O=C1NC(=O)C(=Cc2ccc(O)c(Cl)c2)C(=O)N1,4.6
4,CCOc1cc(OCC)cc(C(=O)Nc2ccc(-c3nc4ccc(C)cc4o3)cc2)c1,-16.6
5,CN(C)c1ccc(/C=N/NC(=O)NC23CC4CC(CC(C4)C2)C3)cc1,3.6
6,CCOC(=O)c1sc(NC(=O)c2ccc(S(=O)(=O)N3CCCC3)cc2)c(C(=O)OCC)c1C,0.6
7,Cc1cnn(-c2nc(-c3ccccc3)cc(-c3ccc(F)cc3)n2)c1,-5.8
8,COc1ccccc1C=C1C(=O)N(C)C(=O)N(C)C1=O,-4.2
9,C(=N\Nc1nnc(-c2ccccc2)c(-c2ccccc2)n1)/c1cccnc1,1.7
10,CCOCCOC(=O)C1=C(C)NC2=C(C(=O)CCC2)C1c1coc2ccc(C)cc2c1=O (stereo not given),-3
11,COc1ccc(C2CC(C(F)(F)F)n3nc(C(=O)Nc4ccccc4SC)c(Cl)c3N2)cc1 (stereo not given),0.5
12,COC(=O)c1ccc(NC(=O)COc2ccc(C)cc2C)cc1,11.2
13,COc1cc(/C=C2/SC(=S)N(C)C2=O)ccc1OC(=O)c1ccccc1Cl,11.8
14,CCN(C(=O)c1cc(OC)c(OC)cc1[N+](=O)[O-])c1ccccc1,16.6
15,O=C(N/N=C/c1ccco1)c1cc(-c2cccc([N+](=O)[O-])c2)n[nH]1,-11.9
16,COc1ccc(N2C(=O)C(Cl)=C(Nc3ccc(OC)cc3OC)C2=O)cc1,15.4
17,Cc1nn(CC(=O)N2CCCCC2)c(=O)c2ccccc12,5.4
18,Cc1ccc(S(=O)(=O)N2CCC(C(=O)O)CC2)cc1,15.4
19,Oc1ccc(/C=N/N=C/c2ccc(O)c(O)c2)cc1O,-6.7
20,Cc1ccc(C2=NN3C(C2)c2ccccc2OC3c2ccc(O)cc2)cc1 (stereo not given),4.2
21,O=[N+]([O-])c1cccc(-c2noc(-c3ccccc3Cl)n2)c1,22.6
22,O=C1CC(NCc2ccncc2)C(=O)N1c1ccc(I)cc1 (stereo not given),-12
23,CSc1nc(SC)c2c3c(sc2n1)COC(C)(C)C3,38
24,COc1ccc(CN2CCN(S(C)(=O)=O)CC2)cc1OCc1ccccc1,0.9
25,O=C(c1ccco1)N1CCN(Cc2ccccc2Cl)CC1,-0.7
26,CCN(Cc1ccccc1)C(=O)c1ccc([N+](=O)[O-])cc1,11.6
27,Cc1cc(=O)oc2c1ccc1oc(/C(=N\O)c3ccc(Cl)cc3)c(C)c12,15.2

row,Structure (SMILES),displacement [%]
1,CCOC(=O)c1c(NC(=O)c2ccc(OC)cc2OC)sc2c1CCCCC2,-5.3
2,CC(=O)c1ccc(NC(=O)CSc2nc(C)cc(=O)[nH]2)cc1,9.8
3,C=CCn1c(CCN2C(=O)c3cccc4cccc(c34)C2=O)n[nH]c1=S,-8
4,CCOc1ccc(Nc2nc(-c3sc(NC(=O)CC)nc3C)cs2)cc1,8.7
5,Cc1ccc(OCCOc2ccc(Cl)cc2/C=N/n2cnnc2)cc1,-3.6
6,N#C/C(=C/c1ccc(I)o1)C(=O)N1CCOCC1,-0.4
7,O=C(NCCCN1CCOCC1)/C(=C/c1cccc(Oc2ccccc2)c1)NC(=O)c1ccccc1,12.2
8,Cc1ccc(Cl)cc1NC(=O)c1cccnc1,7.9
9,COc1cc([N+](=O)[O-])ccc1NC(=O)c1cc(-c2ccccc2)nc2ccccc12,2.7
10,C/C(CC(=O)NC12CC3CC(CC(C3)C1)C2)=N\NC(=O)c1ccccc1I,-6.8
11,Cc1ccc(Cc2cnc(NC(=O)/C=C/c3ccc(C)o3)s2)cc1,17.1
12,CC1=C(C(=O)OCCc2ccccc2)C(c2ccccc2Br)CC(=O)N1 (stereo not given),-13.6
13,Cc1ccc(N2C(=O)c3cccnc3C2=O)cc1C,3.9
14,CCOc1ccc(NC(=O)CN(c2ccc(OC)cc2OC)S(=O)(=O)c2ccc(C)cc2)cc1,-0.7
15,O=C(NCc1ccccc1Cl)c1cccc(I)c1,11.7
16,Cc1c(-c2ccc(Cl)cc2)nc2ccccc2c1C(=O)Nc1ccc(F)cc1F,-9.1
17,COC(=O)CN(c1ccc(C)c(C)c1)S(C)(=O)=O,9.5
18,Cc1cccc(N2C(=O)NC(=O)/C(=C\c3ccc(O)c(Cl)c3)C2=O)c1,1.9
19,COC(=O)C1=C(C(=O)OC)SC(=C2C(=S)C(C)(C)N(C(=O)c3cccc(C)c3)c3cc(OC)ccc32)S1,-7.2
20,COc1ccccc1CNS(=O)(=O)c1ccc(C)c([N+](=O)[O-])c1,-5.3
21,CCOC(=O)c1c(C)nc(-c2ccccc2)nc1NC(=O)CC,-23.9
22,O=C(O)CC(CC(=O)O)c1ccccc1[N+](=O)[O-],-17.9
23,O=C(Nc1ccc2c(c1)OCO2)c1nn2c(c1Br)NC(c1cccs1)CC2C(F)(F)F (stereo not given),4.9
24,Cc1cccc(NC(=O)CSc2nc3ccccc3s2)c1C,4.5
